# Experimental data as given in the supplement of paper PMC3334620.
# Over roughly 33,000 sequences, “E-score (-0.5 to 0.5)” has its median near -0.036; the highest 2% begin near 0.37. This is one part of the list.
# Biological target: T1, Yer064c (UniProt P40041)
# T1 sequence: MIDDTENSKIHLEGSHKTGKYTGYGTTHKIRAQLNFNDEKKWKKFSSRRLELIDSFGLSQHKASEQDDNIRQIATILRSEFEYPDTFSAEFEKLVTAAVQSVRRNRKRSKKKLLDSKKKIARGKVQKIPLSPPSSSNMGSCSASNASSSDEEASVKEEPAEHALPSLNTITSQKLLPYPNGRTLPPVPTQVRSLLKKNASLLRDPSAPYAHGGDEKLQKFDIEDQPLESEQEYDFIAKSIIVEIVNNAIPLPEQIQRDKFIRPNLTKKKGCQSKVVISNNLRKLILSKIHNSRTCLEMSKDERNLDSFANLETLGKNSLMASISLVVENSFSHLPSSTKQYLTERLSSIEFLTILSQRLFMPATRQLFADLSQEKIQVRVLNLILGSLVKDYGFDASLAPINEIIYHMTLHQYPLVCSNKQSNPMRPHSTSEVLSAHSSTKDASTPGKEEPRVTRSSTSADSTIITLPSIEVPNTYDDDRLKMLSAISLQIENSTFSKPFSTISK
# Test: PBM E-score (8-mer binding enrichment) (E-score (-0.5 to 0.5)); higher = stronger / more preferred TF binding; most listed sequences are background and not binding sites
# Conditions: protein concentration: 200 nM; construct: GST-full length
# In short: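 Full-length yeast transcription factors or their DNA-binding domains, GST-tagged and expressed with PURExpress, were applied at about 100-200 nM to universal all-10-mer Agilent arrays. These arrays had been made double-stranded by primer extension on fresh or once-stripped slides. Detection used fluorescent anti-GST, normalisation used masliner, and E-scores for ungapped eight-base words pooled with reverse complements came from the Universal PBM Analysis Suite.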
row,Sequence,PBM E-score
1,ATTTGGTC,-0.0536
2,ACGCATCC,-0.25
3,CAGCGTGG,-0.0592
4,CCTTTTGA,0.111
5,GCGTACAA,-0.0611
6,CACGGCTC,0.036
7,ACTATGCG,-0.00447
8,AGCATGAA,0.0913
9,ATGACCTC,0.0843
10,AATGGTCT,0.014
11,CTCGCATC,-0.0808
12,GGGCAAGA,-0.0907
13,ACTCAGCG,0.269
14,GATTAGAA,0.157
15,CTATGTTA,0.0174
16,CTTCAGAC,0.0391
17,CATGTACA,-0.0824
18,CCGTTTAC,-0.0907
19,AACTGCGC,-0.165
20,AGGGGAAA,-0.177
21,AATTGGCG,-0.156
22,CCGTGACG,-0.0138
23,CAACGTCC,-0.367
24,AAGATTTG,-0.00676
25,GTAGCCAC,0.147

row,Sequence,PBM E-score
1,GATGATGA,0.256
2,ATTACTCC,0.117
3,AAGATTGT,0.0577
4,CAACTAGA,-0.014
5,AAGATATC,0.181
6,GAGTAGGA,0.0914
7,CTATTTGC,-0.14
8,CCTCGTTA,-0.0212
9,CTTATATA,0.0765
10,CGCACTTC,-0.172
11,AAATTACA,0.0217
12,GTCAAATA,0.248
13,GCGGCTTA,-0.0746
14,ACATCTTC,-0.0459
15,AAGAGGCT,-0.00252
16,GGTCGGCA,-0.0818
17,TCCCTAGA,0.0526
18,GATCGCGC,-0.115
19,CGTTCATA,0.0128
20,CAACCTGA,0.0275
21,CATGCCGC,-0.0993
22,CACGATAA,-0.00322
23,GAGTTTGA,0.243
24,ACCGTTAA,-0.00419
25,CATATACG,0.0223

row,Sequence,PBM E-score
1,ACCTGGCC,-0.19
2,ACGGAAAC,-0.0437
3,GGAGCTCC,-0.293
4,CCTGGGCG,-0.146
5,AACAAGGA,-0.053
6,CGAGTGCC,-0.179
7,ATTTATCG,-0.0143
8,CCTACCAG,-0.195
9,GCATACTA,-0.136
10,CCTAGCTA,0.0333
11,CACATTTA,0.0214
12,CAGAAAGA,-0.0113
13,CCGGGTCA,-0.207
14,TGAAATCA,0.346
15,ACTTGAAA,-0.0416
16,CCCATTCA,-0.016
17,ATACAACC,-0.181
18,ACCGATGA,0.113
19,CGTTTGGC,0.0755
20,CACGTAGA,-0.122
21,AGGTTGTG,-0.131
22,ATGGCCGC,-0.348
23,CGACTAAC,0.43
24,GAACCCCA,-0.191
25,CCGATCTC,-0.138

row,Sequence,PBM E-score
1,CGGTACAG,-0.12
2,AGTGAATC,0.362
3,CGGTTAAG,0.0842
4,AAGGACCT,-0.114
5,CACATCCG,0.0665
6,GAATCCCC,-0.113
7,GCAAGAGC,-0.106
8,CGATGACG,-0.172
9,ACTCAGTC,0.411
10,GCCAGTCA,0.349
11,AGCATAAT,-0.0978
12,GCCCTCTA,-0.0486
13,ACGCTCAG,0.121
14,GCAGGGCA,-0.179
15,CAGTTACA,0.00457
16,AAAACATG,0.067
17,GCGATTCA,0.342
18,AGCTGATC,-0.0353
19,CTCTCGAC,-0.0566
20,AGGGACCG,-0.135
21,AGATATCG,-0.0552
22,AGTAGTAA,0.156
23,CGACGGGA,-0.088
24,CACTGTGA,0.114
25,CTCTTGAA,0.053

row,Sequence,PBM E-score
1,AATTAGAC,0.182
2,ATCCGGCA,-0.029
3,AGGAGCGA,0.0248
4,ATTGGTCA,0.0959
5,ATGACTAG,0.48
6,TACGCAAA,0.0264
7,ATAGAACG,-0.071
8,ATCATCGA,0.31
9,AGTCGAGA,0.283
10,TAGTGGCA,-0.118
11,AAAGGCAG,0.0685
12,TCAACGGA,0.124
13,CAACGATC,0.0269
14,TGAGCCAA,0.0764
15,GACACACC,0.0688
16,CTATGCAC,-0.0629
17,AAGAATTG,0.0411
18,GATGCGCC,-0.231
19,CAACTGGA,-0.163
20,TAGCCATA,0.28
21,ATGGGAGC,-0.227
22,ACGCTAGC,-0.195
23,AGAATTAC,-0.0089
24,CCAGACCA,-0.0693
25,CTCACACA,0.141

row,Sequence,PBM E-score
1,GAATGTCA,0.0928
2,GCTAGAAA,-0.0238
3,AATGTGTC,0.153
4,CCATCCCA,0.0189
5,TGACACAA,0.0204
6,CCCTTAGA,-0.0762
7,CGTTCTCA,-0.19
8,GGTTCGAC,0.108
9,CAACCATC,-0.0441
10,CAGAGAGC,-0.116
11,AACGGGCC,-0.291
12,ACTACGCA,0.082
13,AGTGCATA,-0.135
14,ATCTCCCC,-0.0761
15,ACAAATTA,0.0974
16,ATGGGTCA,0.282
17,AACGCGGG,-0.318
18,AATGAAAC,0.153
19,CACCGAGG,-0.271
20,GATCAAGA,0.139
21,CATCAGCC,-0.0354
22,ACCCTGGG,0.012
23,AAACTCGG,0.122
24,ACCTCCTG,-0.0757
25,CCAGCCAG,-0.2

row,Sequence,PBM E-score
1,AGATATTA,-0.0628
2,GCGATCCA,-0.145
3,AGACGCCA,-0.212
4,TACCTTCA,-0.0946
5,CGACGCCC,-0.32
6,CCGCTTAA,0.0255
7,ACCTGGGG,-0.0698
8,GGACTGGA,-0.0268
9,AGGCTATA,-0.025
10,CATGATCA,0.29
11,TAAGAGTA,0.146
12,CTGCATTA,0.00646
13,CCAGAGGC,-0.335
14,AAGTGTCT,0.11
15,ATTTACAG,0.126
16,AAAGAGTC,0.437
17,GCACCGCA,-0.298
18,ACAGATTC,0.126
19,GTACATAA,-0.0115
20,TGTCGACA,-0.137
21,AGGTGAAG,-0.0576
22,AAGGAATT,-0.184
